Measurements taken from publication PMC4336329 (PLoS ONE, 2015).
Hit rate of the full screen: of about 310,000 compounds, about 2,200 (0.71%) showed an effect of 50% or more. Effects have a minus sign here. Some of the results follow.

Target: human ether-à-go-go-related gene (hERG) potassium channel (human, UniProt Q12809)
Test: primary screen, population patch clamp on CHO cells stably expressing hERG

Chain of human ether-à-go-go-related gene (hERG) potassium channel (Q12809 whole entry, looked up): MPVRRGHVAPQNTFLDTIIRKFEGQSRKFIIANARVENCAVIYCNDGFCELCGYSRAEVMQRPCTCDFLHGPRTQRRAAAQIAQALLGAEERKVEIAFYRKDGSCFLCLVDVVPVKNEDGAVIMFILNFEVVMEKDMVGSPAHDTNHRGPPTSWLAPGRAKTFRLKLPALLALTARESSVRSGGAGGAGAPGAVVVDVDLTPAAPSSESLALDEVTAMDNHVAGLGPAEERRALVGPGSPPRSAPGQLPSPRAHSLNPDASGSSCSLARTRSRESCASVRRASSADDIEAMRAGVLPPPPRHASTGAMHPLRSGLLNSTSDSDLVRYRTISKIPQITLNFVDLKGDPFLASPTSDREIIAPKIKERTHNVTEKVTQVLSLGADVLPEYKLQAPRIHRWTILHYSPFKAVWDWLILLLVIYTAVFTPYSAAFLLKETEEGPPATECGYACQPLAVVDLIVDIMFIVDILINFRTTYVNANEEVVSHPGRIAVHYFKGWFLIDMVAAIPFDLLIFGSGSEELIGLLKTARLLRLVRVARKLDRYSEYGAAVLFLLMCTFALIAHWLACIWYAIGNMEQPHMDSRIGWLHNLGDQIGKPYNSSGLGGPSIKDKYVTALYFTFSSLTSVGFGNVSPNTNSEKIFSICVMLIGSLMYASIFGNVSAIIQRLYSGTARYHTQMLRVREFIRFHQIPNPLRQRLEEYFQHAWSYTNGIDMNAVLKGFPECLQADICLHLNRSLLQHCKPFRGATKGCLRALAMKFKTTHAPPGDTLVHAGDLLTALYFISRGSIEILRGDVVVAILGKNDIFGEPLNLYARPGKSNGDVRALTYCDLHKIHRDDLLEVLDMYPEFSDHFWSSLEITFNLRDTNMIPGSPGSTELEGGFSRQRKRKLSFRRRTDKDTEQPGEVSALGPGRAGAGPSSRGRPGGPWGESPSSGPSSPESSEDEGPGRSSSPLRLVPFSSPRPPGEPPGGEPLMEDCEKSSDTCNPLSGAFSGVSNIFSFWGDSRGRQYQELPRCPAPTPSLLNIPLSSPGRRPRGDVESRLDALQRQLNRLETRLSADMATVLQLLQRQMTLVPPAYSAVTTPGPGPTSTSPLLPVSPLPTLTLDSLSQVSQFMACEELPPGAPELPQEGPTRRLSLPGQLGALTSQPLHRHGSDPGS

In order of falling “hERG current change (%, negative = inhibition) at 1uM” value:
1. CCOC(=O)C1=C(c2ccccc2)Nc2ncnn2C1c1cccc(OC)c1OC (stereo not shown)  21.4%
2. Nc1ccccc1C(=O)N=Nc1[nH]c(N)c2ccccc12  21%
3. COc1ccc(Nc2nc(N)nc(CSc3nnc(N)s3)n2)cc1  20.7%
4. Cc1ccc(C)c(N(C(=O)c2csnn2)C(C(=O)NC2CCCC2)c2ccncc2)c1 (stereo not shown)  18.7%
5. CC(C)CSC1=NSC2=NC(=O)/C(=C\c3ccccc3)C(=N)N12  17.5%
6. CN(C)c1ccc(CNC(=O)C2CCN(S(=O)(=O)c3ccc4c(c3)oc(=O)n4C)CC2)cc1  17.2%
7. CCCCCOc1ccc(N2C(=O)CC(N(O)c3ccccc3)C2=O)cc1 (stereo not shown)  16.9%
8. NC(=NC(=O)c1ccc(OCC(F)(F)F)nc1)c1ccc(Cl)cc1  15.5%
9. Cn1c(=O)c(=O)n(C)c2cc(S(=O)(=O)N3CCCC3C(=O)NCc3ccco3)ccc21 (stereo not shown)  15.5%
10. CC(C)c1cccc(C(C)C)c1O  15.3%
11. O=C(C1CCN(S(=O)(=O)c2cnc[nH]2)CC1)N1CCN(c2ccc([N+](=O)[O-])cc2)CC1  14.5%
12. N#Cc1cc(N2CCOCC2)nc2ccccc12  14.4%
13. CCOC(=O)c1sc(NC(=S)NC(=O)c2ccc(OC)cc2)nc1C  14.3%
14. CC(C)Oc1cc(NC(=O)CS(=O)(=O)CC(=O)N(C)C)c(Cl)cc1Cl  14.3%
15. Cc1ccc(SCC(=O)NC2CC2)cc1  14.2%
16. Nc1nc(CSc2nc3ccccc3[nH]2)cs1  13.7%
17. CCOC(=O)c1c(C)n(CC(O)c2ccccc2)c2ccc(O)cc12 (stereo not shown)  13.6%
18. O=C(CCn1ccc2ccccc21)Nc1ccc(N2CCOCC2)cc1  13.5%
19. COc1ccc(CCNC(=O)C2CC(=O)N(c3ccc(C)cc3)C2)cc1 (stereo not shown)  13.2%
20. O=c1c([N+](=O)[O-])cc(C(F)(F)F)cn1Cc1c(Cl)cccc1Cl  13%
21. CC(=O)N1CCC(=NNc2ncc(C(F)(F)F)cc2Cl)CC1  12.8%
22. COC(=O)c1ccc(OCC(=O)c2cccc(OC)c2)cc1  12.6%
23. CSC1CCCCC1(O)CSc1nc2ccccc2o1 (stereo not shown)  12.1%
24. COc1ccccc1-c1nnc(NC(=O)C(C)C)s1  12%
25. Cc1cc(C)cc(OCC(=O)Nc2ccccc2C(=O)NCc2ccco2)c1  11.9%
26. CC(C)N1C(=O)CCC1C(=O)NCc1ccccc1Cl (stereo not shown)  11.8%
27. O=C(Nc1nnc(Cc2c[nH]c3ccccc23)s1)c1ccc(Cl)cc1Cl  11.8%
28. Cc1cccc2cc(CN(CC3CCCO3)C(=O)c3cccnc3)c3nnnn3c12 (stereo not shown)  11.5%
29. CCc1nc(SCC(=O)O)c(C#N)c2c1CCCC2  11.3%
30. CCN(CC)S(=O)(=O)c1ccc(N2CCOCC2)c(NC(=O)C2COc3ccccc3O2)c1 (stereo not shown)  11.1%
31. CCCC1CCC(=NNC(=O)OC(C)(C)C)CC1 (stereo not shown)  11.1%
32. O=[N+]([O-])c1cc(S(=O)(=O)C(F)(F)F)ccc1Sc1nc2ccccc2[nH]1  11%
33. COc1cc2c(cc1OC)C(C)N(S(=O)(=O)c1cccs1)CC2 (stereo not shown)  11%
34. O=C(O)CC1COc2ccccc2N1S(=O)(=O)c1ccc(Br)cc1 (stereo not shown)  10.9%
35. COc1ccccc1/C=C/c1nc2ccccc2c(=O)o1  10.8%
36. COc1cccc(CN2CCNC(=O)C2CC(=O)NCc2cn3cccc(C)c3n2)c1OC (stereo not shown)  10.7%
37. CC(C)NC(=O)c1onc(CSc2ccc(Cl)cc2)c1C(=O)O  10.5%
38. CSc1ccccc1OCc1cc(C(=O)N(C)CC2COCCO2)no1 (stereo not shown)  10.4%
39. Cc1ccc(C2=CC(=O)C[C@H](c3ccc(Cl)cc3)C2)cc1  10.4%
40. COc1ccc(N(CC(=O)NCCSCc2ccccc2Cl)S(C)(=O)=O)cc1Cl  10.1%
41. Cc1ccc(-c2nnn(CC(=O)N(Cc3ccccc3F)C(C(=O)NC3CCCC3)c3ccncc3)n2)o1 (stereo not shown)  9.61%
42. Cc1cc(=O)oc(C)c1C(=O)Nc1c(C)n(C)n(-c2ccccc2)c1=O  9.57%
43. CCOC(=O)C1CCCN(C(=O)c2cc3cc(Br)ccc3oc2=O)C1 (stereo not shown)  9.44%
44. O=C(CNC(=O)c1ccco1)NCc1nc2ccccc2[nH]1  9.41%
45. Cc1cccc(N2CCN(S(=O)(=O)c3ccc(-c4ccc(=O)[nH]n4)o3)CC2)c1C  9.13%
46. C=CC#CC1(O)CC(C)[N+](C)(C)CC1C.[I-] (stereo not shown)  8.86%
47. O=c1c(/C=C(\O)c2ccc(F)cc2)nc2ccccc2n1-c1ccccc1  8.74%
48. O=C(Nc1cccc([N+](=O)[O-])c1)Nc1ccc2c(c1)OCCO2  8.42%
49. Cn1c(CSc2ncn[nH]2)nc2ccccc21  7.98%
50. Cc1ccc(NC(=O)C2Cc3ccccc3C(=O)O2)cc1 (stereo not shown)  7.98%
51. COC(=O)C(C(=O)OC)C(C(C)C)C(C(=O)OC)C(=O)OC  7.91%
52. Cc1ccc(S(=O)(=O)Nc2cccc(C(=O)N3CCCC3)c2)cc1F  7.87%
53. CCN(CC)CCN(C(=O)CCOc1ccccc1)c1nc2c(F)cc(F)cc2s1.Cl  7.79%
54. COC(=O)c1ccc(/C=N/OCC(=O)NC2CCCC(C)C2C)cc1 (stereo not shown)  6.75%
55. COCc1cc(NCc2ccc(Cl)cc2)nc(C)n1  6.57%
56. O=C(Nc1cccc2ccccc12)c1nn(C23CC4CC(CC(C4)C2)C3)cc1Br  6.53%
57. Cc1cccc(NC(=O)c2ccc(Cl)c(NC(=O)c3ccncc3)c2)c1C  6.41%
58. Cc1ccc(OCC(=O)N/N=C/c2cccn2C)cc1C  6.4%
59. CCCCOC(=O)CCCN1C(=O)/C(=C2\SC(=S)N(CCCC(=O)OCCCC)C2=O)SC1=S  6.38%
60. CN(C)c1ccc(C(=S)N2CCN(C(=S)Nc3cccc4ccccc34)CC2)cc1  5.38%
61. NC(=O)C1CCN(C(=O)CSc2nc(O)cc(=O)[nH]2)CC1  5.35%
62. COc1ccccc1CNC(=O)COC(=O)Cc1c[nH]c2ccccc12  5.17%
63. Cc1ncoc1C(=O)NC1CC(C)(C)Cc2c1cnn2-c1ccc(F)cc1 (stereo not shown)  4.88%
64. O=C(COC(=O)c1cccc(O)c1)c1ccccc1  4.84%
65. Oc1cccc(/C=N/Nc2cc(N3CCOCC3)nc(N3CCOCC3)n2)c1  4.32%
66. CCOc1ccc(CC(=O)NCc2ccc3c(c2)cc(C)n3C)cc1  3.92%
67. Cn1c(=S)[nH]c(=O)c2ncc(=O)[nH]c21  3.01%
68. CCOC(=O)c1sc(SC)c(C(C)=O)c1C  2.78%
69. CCCCn1c(O)c(C(C)=NCCCN(CC)CC)c(=O)[nH]c1=O  2.51%
70. Cc1cc(C(=O)NC(C)c2ccncc2)no1 (stereo not shown)  2.06%
71. CCN(CCNCC(O)COCc1ccc(Cl)cc1)c1cccc(C)c1.O=C(O)C(=O)O (stereo not shown)  1.74%
72. CCOC(=O)CNC(=O)N1CCCC(C(=O)c2cccc(Cl)c2)C1 (stereo not shown)  1.62%
73. CCOC(=O)/C(C#N)=C/c1cccc(F)c1  1.58%
74. CN(C)c1nc2c(c(=O)[nH]c(=O)n2C)n1CCCc1ccccc1  0.828%
75. C(=N/Nc1nccs1)/c1cccnc1  0.759%
76. CCOC(=O)c1nn(-c2ccc(C)c(C)c2)cc1O  0.585%
77. CC(C)CCNC(=O)CCNS(=O)(=O)c1ccc(Cl)cc1  0.252%
78. CN(C)c1cccc2c1c(NC(=O)c1ccc(F)cc1)nn2C  -0.755%
79. O/N=C(\COc1ccccc1O)c1ccccc1  -0.796%
80. CCn1c2ccccc2c2nnc(SCCN3CCCCC3)nc21  -1.75%
81. COc1ccc(OC)c(C(=O)c2coc3ccc(OC)cc23)c1  -3.13%
82. CCc1c(C)nc(N)nc1N1N=C1SCC#N  -3.92%
83. COc1ccccc1CCCNC(=O)C1CCC(=O)N(CCc2cccc(F)c2)C1 (stereo not shown)  -6.96%
84. Cc1c(C(=O)NCCSCc2cccc(C(F)(F)F)c2)cnn1-c1ccc(F)cc1  -8.68%
85. N#Cc1nc(COc2ccccc2Cl)oc1NCc1cccnc1  -9.5%
86. O=C(O)CC12CC3CC(C1)CC(n1ncc(NCc4ccc(F)cc4)c(Cl)c1=O)(C3)C2  -10.5%
87. COC(=O)c1ccc(C23CC4(C2)[C@H](CN(C)[C@@H]4c2ccccc2)C3c2ccc(C(F)(F)F)cc2)cc1 (stereo partly shown)  -13.2%
88. O=C(O)C1CC=CCC1C(=O)NCCc1csc(-c2ccccc2)n1 (stereo not shown)  -15.3%
89. FC(F)(F)c1cccc(Cc2noc(CN3CCCC(OCc4ccccn4)C3)n2)c1 (stereo not shown)  -20.7%
90. Cc1cccc(C)c1NC(=O)CN(C)C(=O)C1CCN(c2ncnc3sc(C)c(C)c23)CC1  -29.4%
91. O=C(NCC(=O)N1CCN(c2cccc(Cl)c2)CC1)c1ccc(Br)o1  -57.5%
